# Reference: the supplement of paper PMC8512760
# Counter-ions that a name gives are not always drawn. This is one part of the list. Repeats are few or missing, and single values can be far off.
# How the values were obtained:
# Test in all cases: cell viability relative to vehicle (% of vehicle); basal-like triple-negative breast cancer lines; higher = less cytotoxic
# Settings in all cases: 10 µM; 72 h
# [1] = test system: HCC-1143
# [2] = test system: HCC-1187
# [3] = test system: MDA-468
# [4] = test system: SUM-149
# 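Also: stably firefly luciferase-GFP labeled cells in 96-well plates, viability read as luciferase photon flux after d-luciferin addition, treated wells normalized to vehicle wells, single-dose high-throughput screen.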
Compound,cell viability [1],cell viability [2],cell viability [3],cell viability [4]
CN[C@H](CC(C)C)C(=O)N[C@H]1C(=O)N[C@@H](CC(N)=O)C(=O)N[C@H]2C(=O)N[C@H]3C(=O)N[C@H](C(=O)N[C@H](C(=O)O)c4cc(O)cc(O)c4-c4cc3ccc4O)[C@H](O)c3ccc(c(Cl)c3)Oc3cc2cc(c3O[C@@H]2O[C@H](CO)[C@@H](O)[C@H](O)[C@H]2O[C@H]2C[C@](C)(N)[C@H](O)[C@H](C)O2)Oc2ccc(cc2Cl)[C@H]1O [Vancomycin hydrochloride],128,93.3,86,101
COCCOC(=O)C1=C(C)NC(C)=C(C(=O)OC(C)C)C1c1cccc([N+](=O)[O-])c1 (stereo unspecified) [Nimodipine],98.8,125,123,117
CN(C)C(CCOc1cccc2ccccc12)c1ccccc1.Cl (stereo unspecified) [Dapoxetine HCl],74,97.7,116,80.8
Br.Br.Br.Br.Br.Cc1cc(N2CCN(C3CNC(C(=O)N4CCSC4)C3)CC2)n(-c2ccccc2)n1.Cc1cc(N2CCN(C3CNC(C(=O)N4CCSC4)C3)CC2)n(-c2ccccc2)n1 (stereo unspecified) [Teneligliptin hydrobromide],99.9,96.3,91.7,102
CC(=O)Oc1cc2c(s1)CCN(C(C(=O)C1CC1)c1ccccc1F)C2 (stereo unspecified) [Prasugrel],87.9,87.2,92.1,92.2
Br.CN1CCCC1Cc1c[nH]c2ccc(CCS(=O)(=O)c3ccccc3)cc12 (stereo unspecified) [Eletriptan HBr],74.8,94.8,116,106
CCN(CC)CCCC(C)Nc1ccnc2cc(Cl)ccc12.O=P(O)(O)O.O=P(O)(O)O (stereo unspecified) [Chloroquine diphosphate],70.6,83,102,92.2
C#Cc1cccc(Nc2ncnc3cc(OCCOC)c(OCCOC)cc23)c1.Cl [Erlotinib Hydrochloride],131,95,97.4,87.5
NS(=O)(=O)Cc1noc2ccccc12 [Zonisamide],87.3,134,97.3,129
CCN(CCO)CCCC(C)Nc1ccnc2cc(Cl)ccc12.O=S(=O)(O)O (stereo unspecified) [Hydroxychloroquine Sulfate],70.2,86.5,90.8,74.6
NCC1OC(OC2C(CO)OC(OC3C(O)C(N)CC(N)C3OC3OC(CO)C(O)C(O)C3N)C2O)C(N)C(O)C1O.O=S(=O)(O)O (stereo unspecified) [Paromomycin Sulfate],91.9,92.4,105,90.7
CC1=C(CC(=O)O)c2cc(F)ccc2C1=Cc1ccc(S(C)=O)cc1 (stereo unspecified) [Sulindac],103,72.2,89.8,103
CC(C(=O)O)c1cccc(Oc2ccccc2)c1 (stereo unspecified) [Fenoprofen calcium hydrate],107,115,104,92.1
COCCn1c2c([n+](Cc3cnccn3)c1C)C(=O)c1ccccc1C2=O.[Br-],34.9,23.2,27.9,38.5
CC(C)(C)c1ccc(C(O)CCCN2CCC(C(O)(c3ccccc3)c3ccccc3)CC2)cc1 (stereo unspecified) [Terfenadine],26.9,31.6,40.6,35.1
CC(C)OC(=O)C(C)NP(=O)(OCC1OC(n2ccc(=O)[nH]c2=O)C(C)(F)C1O)Oc1ccccc1 (stereo unspecified),74.3,97.4,94.7,104
CC(CCC(=O)O)C1CCC2C3CCC4CC(O)CCC4(C)C3CCC12C (stereo unspecified) [Lithocholic Acid],111,88.4,109,97.5
Oc1c(Cl)cc(Cl)c2cccnc12 [Chloroxine],69.1,64.4,54.2,10.6
CC1(C)SC2C(NC(=O)C(N)c3ccccc3)C(=O)N2C1C(=O)O.O.O.O (stereo unspecified) [Ampicillin Trihydrate],110,101,101,122
CC(C(=O)O)c1ccc2c(c1)Cc1cccnc1O2 (stereo unspecified) [Pranoprofen],107,106,95.7,93.6
COc1nc2ccc(Br)cc2cc1[C@@H](c1ccccc1)[C@@](O)(CCN(C)C)c1cccc2ccccc12 [Bedaquiline fumarate],107,97.6,111,80.2
Clc1ccc(CSC(Cn2ccnc2)c2ccc(Cl)cc2Cl)cc1.O=[N+]([O-])O (stereo unspecified) [Sulconazole Nitrate],59.8,28.6,75.7,123
CC1(C)OC2COC3(COS(N)(=O)=O)OC(C)(C)OC3C2O1 (stereo unspecified) [Topiramate],112,94.8,91.6,117
CC(C)(Oc1ccc(C2CC2(Cl)Cl)cc1)C(=O)O (stereo unspecified) [Ciprofibrate],71.3,103,105,98.8
CC1COc2c(N3CCN(C)CC3)c(F)cc3c(=O)c(C(=O)O)cn1c23 (stereo unspecified) [Ofloxacin],68,79.9,101,96.3

Compound,cell viability [1],cell viability [2],cell viability [3],cell viability [4]
NS(=O)(=O)c1cc2c(cc1Cl)NC(C(Cl)Cl)NS2(=O)=O (stereo unspecified) [Trichlormethiazide],113,108,88.1,95.5
CC(=O)N(c1onc(C)c1C)S(=O)(=O)c1ccc(N)cc1 [Sulfisoxazole Acetyl],73,87.7,99.5,87.6
Cl.O.O=C1Cc2cc(CCN3CCN(c4nsc5ccccc45)CC3)c(Cl)cc2N1 [Ziprasidone hydrochloride monohydrate],104,101,91.4,116
O=c1[nH]cc(F)c(=O)[nH]1 [Fluorouracil (Adrucil)],74.4,61.5,78.6,80.1
Nc1ccc(S(=O)(=O)Nc2nccs2)cc1 [Sulfathiazole],107,85.2,90.6,107
COC(=O)C1=C(C#N)NC(C)=C(C(=O)OC(C)C)C1c1cccc([N+](=O)[O-])c1 (stereo unspecified) [Nilvadipine],112,96.7,110,93.6
Cc1cn(C2CC(O)C(CO)O2)c(=O)[nH]c1=O (stereo unspecified) [Telbivudine],81.4,111,120,117
O=C(Oc1ccccc1C(=O)O)c1ccccc1O [Sasapyrine],90,108,101,106
COc1c(C)c2c(c(O)c1CC=C(C)CCC(=O)OCCN1CCOCC1)C(=O)OC2 [Mycophenolate Mofetil],79.8,46.7,61.6,56.3
Nc1ncn(C2OC(CO)C(O)C2O)c(=O)n1 (stereo unspecified) [5-Azacytidine],53,73.6,51.1,85.7
COC(=O)C1CC2=CC(=O)CCC2(C)C23OC2CC2(C)C(CC[C@]24CCC(=O)O4)C13 (stereo partly specified) [Epleremone],73.2,100,119,97.1
CN(C)CC=CC(=O)Nc1cc2c(Nc3ccc(F)c(Cl)c3)ncnc2cc1OC1CCOC1 (stereo unspecified) [Afatinib (BIBW2992)],24.3,22.9,30,28.2
Nc1nnc(-c2cccc(Cl)c2Cl)c(N)n1 [Lamotrigine],71.7,104,103,113
C#CC1(O)CCC2C3CCC4=CC(=O)CCC4C3CCC21C (stereo unspecified) [Norethindrone],78,111,126,116
OCCOc1ccc(C(=C(CCCl)c2ccccc2)c2ccccc2)cc1 [Ospemifene],77.7,93.6,107,113
CCCN(CCC)S(=O)(=O)c1ccc(C(=O)O)cc1 [Probenecid],80.9,81.1,95.4,107
COC(=O)NC(C(=O)NC(Cc1ccccc1)C(O)CN(Cc1ccc(-c2ccccn2)cc1)NC(=O)C(NC(=O)OC)C(C)(C)C)C(C)(C)C (stereo unspecified) [Atazanavir],82.4,94,98.9,114
CCOc1nc2cccc(C(=O)O)c2n1Cc1ccc(-c2ccccc2-c2nn[nH]n2)cc1 [Candesartan],95.6,130,92.8,123
CCCC(CCC)C(=O)O.CCCC(CCC)C(=O)[O-].[Na+] [Divalproex Sodium],95.5,95.9,108,133
C[N+](C)(C)CC(O)CC(=O)[O-] [L-Carnitine inner salt],98.6,87.6,121,112
COC(=O)C1=C(C)NC(C)=C(C(=O)OCCN(C)Cc2ccccc2)C1c1cccc([N+](=O)[O-])c1.Cl (stereo unspecified) [Nicardipine HCl],129,109,104,89.4
CO[C@H]1/C=C/O[C@@]2(C)Oc3c(C)c(O)c4c(c3C2=O)C(=O)/C(=C/NN2CCN(C)CC2)C(=C4O)NC(=O)/C(C)=C/C=C/[C@H](C)[C@H](O)[C@@H](C)[C@@H](O)[C@@H](C)[C@H](OC(C)=O)[C@@H]1C [Rifampin],73.6,75.2,88.6,85.5
CSc1ccc2c(c1)N(CCC1CCCCN1C)c1ccccc1S2.Cl (stereo unspecified) [Thioridazine HCl],89.1,102,105,68.7
O=C(NC(CO)C(O)c1ccc([N+](=O)[O-])cc1)C(Cl)Cl (stereo unspecified) [Chloramphenicol],83.7,90.5,86.1,92.9
